# Laboratory results taken from ChEMBL document CHEMBL5606458, “ASAP - ZIKV NS2B-NS3 protease fluorescence single point” (2024).
# Out of some 2,700 compounds screened, about 160 (5.9%) showed an effect of 50% or more. Some of the results follow.
# Biological target: Nonstructural protein 3 (Zika virus) (UniProt A0A024AXB9)
# [1] = PRVABC59, Concentration 15.0 uM, Number of replicates 1.0
# [2] = PRVABC59, Concentration 50.0 uM, Number of replicates 1.0
# [3] = PRVABC59, Concentration 10.0 uM, Number of replicates 1.0
# Sequence of UniProt A0A024AXB9 (A0A024AXB9 as listed by the source): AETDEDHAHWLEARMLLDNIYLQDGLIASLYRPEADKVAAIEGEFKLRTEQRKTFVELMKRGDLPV
structure (smiles),measurement,setting,value
O=C(NCCCn1nccc1C1CC1)c1cc(Cl)ccc1NS(=O)(=O)c1ccc(Oc2ccccc2Cl)cc1,inhibition,[1],25.6%
C[C@@H](CC(C)(C)c1ccccc1)NC(=O)c1cc(Cl)ccc1NS(=O)(=O)c1ccc(Oc2ccccc2Cl)cc1,inhibition,[1],18.2%
O=Cc1ccc(N2CCC(C(=O)Nc3ccc(F)c(F)c3Br)CC2)cc1,inhibition,[2],23.2%
N#Cc1ccc(N2CCN(C(=O)c3cc(Cl)ccc3NS(=O)(=O)c3ccc(Oc4ccccc4Cl)cc3)CC2)nc1,inhibition,[1],7.42%
O=C(c1cc(Cl)ccc1NS(=O)(=O)c1ccc(Oc2ccccc2Cl)cc1)N1CCN(C(=O)[C@H]2COc3ccccc3O2)CC1,inhibition,[1],19.2%
O=Cc1ccc(N2CCC(C(=O)N3CCC[C@H](C(=O)c4ccc(F)cc4)C3)CC2)cc1,inhibition,[2],23.6%
CSc1ccc(CNC(=O)c2cc(Cl)ccc2NS(=O)(=O)c2ccc(Oc3ccccc3Cl)cc2)cc1,inhibition,[1],25.6%
Cc1cc(CO)c2cccc(Cc3cccc(C(=O)N[C@@H](CCC(N)=O)C(=O)O)c3)c2n1,inhibition,"PRVABC59, Concentration 49.95 uM, Number of replicates 2.0, Standard deviation 1.9977585963676485 %",14.4%
same,inhibition,"PRVABC59, Concentration 99.9 uM, Number of replicates 2.0, Standard deviation 0.9280938346971718 %",36%
O=C1NC(=O)C2(CCN(C(=O)c3cc(Cl)ccc3NS(=O)(=O)c3ccc(Oc4ccccc4Cl)cc3)CC2)N1,inhibition,[1],-1.11%
O=C(Nc1ncccc1C(F)(F)F)c1cc(Cl)ccc1NS(=O)(=O)c1ccc(Oc2ccccc2Cl)cc1,inhibition,[1],25.1%
Cc1c(C(=O)NCc2nnc([C@H]3CCCO3)[nH]2)ccc(O)c1NC(=O)c1ccncc1F,inhibition,"PRVABC59, Concentration 49.5 uM, Number of replicates 2.0, Standard deviation 2.746247007883526 %",-0.923%
same,inhibition,"PRVABC59, Concentration 99.01 uM, Number of replicates 2.0, Standard deviation 2.0182325238498766 %",0.321%
same,inhibition,"PRVABC59, Concentration 198.0 uM, Number of replicates 2.0, Standard deviation 2.8783776729931185 %",1.74%
CCN(Cc1cnn(CC)c1)C(=O)C1CCN(c2ccc(C=O)cc2)CC1,inhibition,[3],20.1%
CNC(=O)CC[C@H]1CCCN(C(=O)c2cc(Cl)ccc2NS(=O)(=O)c2ccc(Oc3ccccc3Cl)cc2)C1,inhibition,[1],0.891%
CCOC(=O)c1cc(CNCc2nnc3ccccn23)[nH]n1,inhibition,"PRVABC59, Concentration 49.5 uM, Number of replicates 2.0, Standard deviation 0.8643145261321823 %",3.76%
same,inhibition,"PRVABC59, Concentration 99.01 uM, Number of replicates 2.0, Standard deviation 0.8811301071636647 %",6.15%
same,inhibition,"PRVABC59, Concentration 198.0 uM, Number of replicates 2.0, Standard deviation 1.1115020837259069 %",10.5%
O=Cc1ccc(N2CCC(C(=O)N3CC(OCc4ccccc4)C3)CC2)cc1,inhibition,[2],25.3%
O=C(O)[C@H](c1c[nH]c2ccccc12)N1CCC(c2cnc3ccc[nH]c2-3)CC1,inhibition,"PRVABC59, Concentration 49.5 uM, Number of replicates 2.0, Standard deviation 2.240624574165748 %",1.83%
same,inhibition,"PRVABC59, Concentration 99.01 uM, Number of replicates 2.0, Standard deviation 0.08733636230948652 %",6.77%
same,inhibition,"PRVABC59, Concentration 198.0 uM, Number of replicates 2.0, Standard deviation 0.707723811048747 %",15%
O=Cc1ccc(N2CCC(C(=O)N3CCN(c4nccs4)CC3)CC2)cc1,inhibition,[2],23.4%
O=C(NCc1ccccc1-c1ccccc1)c1cc(Cl)ccc1NS(=O)(=O)c1ccc(Oc2ccccc2Cl)cc1,inhibition,[1],13.1%
Cc1cc(CO)c2cccc(Cc3ccccc3NC(=O)CCC3CCNCC3)c2n1,inhibition,"PRVABC59, Concentration 49.95 uM, Number of replicates 2.0, Standard deviation 0.020358613704702253 %",4.96%
same,inhibition,"PRVABC59, Concentration 99.9 uM, Number of replicates 2.0, Standard deviation 1.9188023762412802 %",26.8%
COc1cc(CC(=O)NCc2cccnc2)nc(N2CCNCC2)n1,inhibition,"PRVABC59, Concentration 49.5 uM, Number of replicates 2.0, Standard deviation 0.24894019214220156 %",-2.17%
same,inhibition,"PRVABC59, Concentration 99.01 uM, Number of replicates 2.0, Standard deviation 0.7234823701930005 %",0.029%
same,inhibition,"PRVABC59, Concentration 198.0 uM, Number of replicates 2.0, Standard deviation 0.18151872151629458 %",3.81%
CNC(=O)C1CN(S(=O)(=O)c2ccc(Oc3ccccc3Cl)cc2)C1,inhibition,"PRVABC59, Concentration 49.5 uM, Number of replicates 2.0, Standard deviation 2.02275079245079 %",-0.647%
same,inhibition,"PRVABC59, Concentration 99.01 uM, Number of replicates 2.0, Standard deviation 1.788137114907563 %",1.9%
same,inhibition,"PRVABC59, Concentration 198.0 uM, Number of replicates 2.0, Standard deviation 2.606114974318383 %",6.78%
COc1ccccc1OCCCN(C)C(=O)C1CCN(c2ccc(C=O)cc2)CC1,inhibition,[2],22.6%
O=C(NCc1ccccc1-n1cccn1)c1cc(Cl)ccc1NS(=O)(=O)c1ccc(Oc2ccccc2Cl)cc1,inhibition,[1],20.6%
CCc1cccc2[nH]c(C(=O)N3C[C@H](n4cc(CO)nn4)CCC3(C)C)cc12,inhibition,"PRVABC59, Concentration 49.5 uM, Number of replicates 2.0, Standard deviation 1.345657751466366 %",1.61%
same,inhibition,"PRVABC59, Concentration 99.01 uM, Number of replicates 2.0, Standard deviation 0.921351350459793 %",4.33%
same,inhibition,"PRVABC59, Concentration 198.0 uM, Number of replicates 2.0, Standard deviation 1.6164058188461652 %",5.38%
O=C(CN1CCC(NC(=O)c2cc(Cl)ccc2NS(=O)(=O)c2ccc(Oc3ccccc3Cl)cc2)CC1)NC1CC1,inhibition,[1],-1.61%
C[C@H]1CCC[C@H](C)N1CCNC(=O)c1cc(Cl)ccc1NS(=O)(=O)c1ccc(Oc2ccccc2Cl)cc1,inhibition,[1],8.63%
CN(C)c1ccccc1CNC(=O)c1cc(Cl)ccc1NS(=O)(=O)c1ccc(Oc2ccccc2Cl)cc1,inhibition,[1],24.1%
O=C(c1cc(Cl)ccc1NS(=O)(=O)c1ccc(Oc2ccccc2Cl)cc1)N1CCc2ccc([N+](=O)[O-])cc2C1,inhibition,[1],16.9%
N#Cc1cnn(-c2ccc([N+](=O)[O-])cc2)c1NC(=O)C1CCN(c2ccc(C=O)cc2)CC1,inhibition,[2],32.6%
O=Cc1ccc(N2CCC(C(=O)N3CCC(c4nc5ccccc5s4)CC3)CC2)cc1,inhibition,[2],23.8%
Cc1ccc(C[C@H]2CCCN(C(=O)c3cc(Cl)ccc3NS(=O)(=O)c3ccc(Oc4ccccc4Cl)cc3)C2)cc1,inhibition,[1],5.03%
O=C(c1cc(Cl)ccc1NS(=O)(=O)c1ccc(Oc2ccccc2Cl)cc1)N1C[C@@H]2C[C@H](C1)c1cccc(=O)n1C2,inhibition,[1],-1.26%
Cc1nc2ccc(-c3ccccc3C(=O)Nc3cnn(C)c3)cn2n1,inhibition,"PRVABC59, Concentration 49.5 uM, Number of replicates 2.0, Standard deviation 0.30374829112055624 %",-2.95%
same,inhibition,"PRVABC59, Concentration 99.01 uM, Number of replicates 2.0, Standard deviation 1.6059154261049553 %",-0.369%
same,inhibition,"PRVABC59, Concentration 198.0 uM, Number of replicates 2.0, Standard deviation 1.9491645233666188 %",1.14%
CN(C)CCCN(CCCN(C)C)C(=O)c1cc(Cl)ccc1NS(=O)(=O)c1ccc(Oc2ccccc2Cl)cc1,inhibition,[1],1.26%
O=C(Nc1ccc2c(c1)OC(F)(F)O2)c1cc(Cl)ccc1NS(=O)(=O)c1ccc(Oc2ccccc2Cl)cc1,inhibition,[1],50%
O=Cc1ccc(N2CCC(C(=O)NC34C[C@@H]5C[C@@H](CC(O)(C5)C3)C4)CC2)cc1,inhibition,[2],26.3%
COc1ccc(C(=O)C2CCN(C(=O)c3cc(Cl)ccc3NS(=O)(=O)c3ccc(Oc4ccccc4Cl)cc3)CC2)cc1,inhibition,[1],7.47%
CC(C)(CC(=O)N1CCCC1)NC(=O)c1cc(Cl)ccc1NS(=O)(=O)c1ccc(Oc2ccccc2Cl)cc1,inhibition,[1],23.9%
O=Cc1ccc(N2CCC(C(=O)Nc3nc4cc(Cl)ccc4s3)CC2)cc1,inhibition,[2],22.7%
COc1ccc(F)c(-c2nn(C)cc2NC(=O)c2ccccc2C(F)(F)F)c1,inhibition,"PRVABC59, Concentration 49.5 uM, Number of replicates 2.0, Standard deviation 3.6790310281766874 %",-0.787%
same,inhibition,"PRVABC59, Concentration 99.01 uM, Number of replicates 2.0, Standard deviation 0.02996615641015459 %",-1.95%
same,inhibition,"PRVABC59, Concentration 198.0 uM, Number of replicates 2.0, Standard deviation 1.5500693766883227 %",-0.514%
O=Cc1ccc(N2CCC(C(=O)Nc3ccc4c(c3)OCCO4)CC2)cc1,inhibition,[2],3.49%
Cc1cc(CO)c2cccc(NC(=O)c3nc(-c4ccccc4)oc3C(F)(F)F)c2n1,inhibition,"PRVABC59, Concentration 49.95 uM, Number of replicates 2.0, Standard deviation 2.699761899961709 %",15.3%
same,inhibition,"PRVABC59, Concentration 99.9 uM, Number of replicates 2.0, Standard deviation 2.5993991268892636 %",24.8%
O=C(Nc1ccc2scnc2c1)c1cc(Cl)ccc1NS(=O)(=O)c1ccc(Oc2ccccc2Cl)cc1,inhibition,[1],71.2%
COc1cc(CNC(=O)C2CCN(c3ccc(C=O)cc3)CC2)cc(OC)c1,inhibition,[3],22.4%
CC(C)(CO)NC(=O)c1cc(Cl)cc(NS(=O)(=O)c2ccccc2)c1,inhibition,"PRVABC59, Concentration 49.5 uM, Number of replicates 2.0, Standard deviation 1.5800354488047803 %",-3.93%
same,inhibition,"PRVABC59, Concentration 99.01 uM, Number of replicates 2.0, Standard deviation 1.0610755711187447 %",-1.75%
same,inhibition,"PRVABC59, Concentration 198.0 uM, Number of replicates 2.0, Standard deviation 2.27062003317233 %",-1.04%
CCCN(C(=O)C1CCN(c2ccc(C=O)cc2)CC1)[C@@H](C)c1ccccc1,inhibition,[2],28.1%
